The campaign covered roughly 200,000 compounds. About 4,500 (2.2%) were called active. The inconclusive results got no clear call from the source; some entries with a clear call stand among them for comparison. Calls follow the shape of the dose curve; as a rule, active = well fitted inhibition curve with a large enough effect; inconclusive = small, poorly fitted or top-dose-only effect, or effect the other way; inactive = flat fitted curve, though single readings scatter. A potency beside an inconclusive call is a rough fit, not a confirmed value.
What follows are compounds tested against Cruzipain (Trypanosoma cruzi) (UniProt P25779) (assay: qHTS Assay for Promiscuous and Specific Inhibitors of Cruzain (without detergent)). Conditions: purified cruzain, Z-FR-AMC fluorescence, no detergent.
Sequence of UniProt P25779 (P25779 whole entry, looked up): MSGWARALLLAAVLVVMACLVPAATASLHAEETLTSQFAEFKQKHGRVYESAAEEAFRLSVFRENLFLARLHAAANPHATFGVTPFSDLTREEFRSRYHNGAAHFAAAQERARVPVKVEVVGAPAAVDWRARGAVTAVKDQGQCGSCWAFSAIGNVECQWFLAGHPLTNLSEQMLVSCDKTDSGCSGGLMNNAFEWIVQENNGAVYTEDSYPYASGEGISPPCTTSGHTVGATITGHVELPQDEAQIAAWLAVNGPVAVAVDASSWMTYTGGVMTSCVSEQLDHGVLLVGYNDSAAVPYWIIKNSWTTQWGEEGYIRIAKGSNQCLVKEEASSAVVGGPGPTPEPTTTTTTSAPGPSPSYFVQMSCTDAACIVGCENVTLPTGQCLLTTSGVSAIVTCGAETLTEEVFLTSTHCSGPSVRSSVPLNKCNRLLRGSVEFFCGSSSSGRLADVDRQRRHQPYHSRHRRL
Outline: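 Purified cruzain at 1.5 nM, pre-incubated 15 min with compound at room temperature in 100 mM sodium acetate pH 5.5, 5 mM DTT, 0.00005% Triton X-100. Reaction started with 2 uM Z-FR-AMC; AMC fluorescence increase over 60 s gives rate.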
Also: nearly all actives have a fitted effect of over 40% in size.
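For max response, negative = inhibition in this document: plate controls were enzyme without inhibitor for no effect and buffer without enzyme for full effect.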
Potency is read from the fitted curve at half-maximal effect; tags tell the direction and shape of the fitted curve.

Question: Which Potency does the source give for `Nc1ccc2c(c1)C/C(=C/c1ccco1)C2=O` here?
Answer: inconclusive: 39.8 µM [inhibitor, single point]

Question: Which Potency does the source give for `CCCS(=O)(=O)c1nc(S(=O)(=O)c2ccc(C)cc2)c(NCCCOC(C)C)s1` here?
Answer: inconclusive: 6.31 µM [inhibitor, single point]

Question: `CCOc1ccc(NC(=O)c2ccc(C#CC(C)(C)O)cc2)cc1` was tested. Which Potency did it give?
Answer: inconclusive: 1 µM [inhibitor, single point]

Question: For `O=C(CCCSc1nc(-c2ccco2)cc(C(F)(F)F)n1)NCC1CCCO1` (stereo not given), which Potency is on record?
Answer: inconclusive: 39.8 µM [activator, single point]

Question: With `CCOC(=O)c1sc(NC(=O)CNC(=O)Cn2cnc3sc(C)c(C)c3c2=O)nc1C` as the compound, how does the Potency read?
Answer: inconclusive: 10 µM [activator, partial curve]

Question: How did the Potency turn out when `CC(C)(C)c1ccc(S(=O)(=O)c2cnc(SCC(=O)Nc3ccc4c(c3)OCCO4)[nH]c2=O)cc1` was run?
Answer: inconclusive: 10 µM [activator, partial curve]

Question: Which Potency does the source give for `COc1ccc(-c2nc(CSCC(=O)NC3CCCc4ccccc43)c(C)o2)cc1OC` (stereo not given) here?
Answer: inconclusive: 25.1 µM [activator, single point]

Question: How did the Potency turn out when `Cc1c(C(=O)Nc2nc3ccccc3[nH]2)oc2ccc(Br)cc12` was run?
Answer: inconclusive: 39.8 µM [inhibitor, single point]

Question: `CC1Cc2nc(SCC(N)=O)n(C)c(=O)c2S1` (stereo not given) was tested. Which max response, negative = inhibition did it give?
Answer: inactive: 4.88%

Question: For `Cc1cc(OCC(F)(F)C(F)(F)C(F)(F)C(F)(F)C(F)(F)C(F)F)nc(N)n1`, which Potency is on record?
Answer: inconclusive: 39.8 µM [activator, single point]

Question: Which Potency does the source give for `COC(=O)c1cc(NC(=O)CN(c2ccccc2OC)S(=O)(=O)c2ccccc2)ccc1Cl` here?
Answer: inconclusive: 25.1 µM [inhibitor, single point]

Question: Which Potency does the source give for `CCOC(=O)c1cccc(NC(=O)CSc2cc(=O)n(C)c3ccccc23)c1` here?
Answer: inconclusive: 31.6 µM [activator, single point]

Question: How did the max response, negative = inhibition turn out when `COC(=O)[C@@H]1C[C@@H]2CC[C@@H](O)C[C@@H]2N1Cc1ccc(-c2ccccc2)cc1` was run?
Answer: inactive: 8.99%

Question: Which Potency does the source give for `COc1ccc(N2CCC(CNC(=S)Nc3cccc(OC)c3)C2)cc1` (stereo not given) here?
Answer: active: 31.6 µM

Question: `Cc1ccc(-n2ncc(C(=O)NCc3ccccn3)c2C2CCN(C(=O)OC(C)(C)C)CC2)cc1C` was tested. Which Potency did it give?
Answer: inconclusive: 20 µM [activator, partial curve]

Question: How did the Potency turn out when `O=C(COC(=O)c1cc(-c2ccccc2Cl)nc2ccccc12)Nc1ncc(C(F)(F)F)cc1Cl` was run?
Answer: inconclusive: 39.8 µM [inhibitor, single point]

Question: With `CCOC(=O)/C(=C\Nc1ccccc1C(F)(F)F)Sc1ncc(C(F)(F)F)cc1Cl` as the compound, how does the Potency read?
Answer: inconclusive: 15.8 µM [inhibitor, partial curve]

Question: How did the max response, negative = inhibition turn out when `Cc1ccc(Cl)cc1NC(=O)c1nnn(Cc2ccccc2)c1N` was run?
Answer: inactive: -0.63%

Question: For `Cc1ccc(NC(=O)CSc2nc3ccccc3nc2Cc2ccccc2)c(Cl)c1`, which max response, negative = inhibition is on record?
Answer: inactive: -21.2%

Question: For `CNc1nc(-c2cccnc2)nc2ccccc12`, which max response, negative = inhibition is on record?
Answer: inactive: -4.75%

Question: For `O=C(COc1ccc(Cl)cc1)Nc1ccc2nc(SCC(=O)N3CCOCC3)sc2c1`, which Potency is on record?
Answer: inconclusive: 31.6 µM [activator, single point]

Question: `O=C(c1cccs1)c1cn(CC(=O)N2CCc3ccccc3C2)c2ccccc12` was tested. Which Potency did it give?
Answer: inconclusive: 39.8 µM [inhibitor, single point]

Question: Which Potency does the source give for `Cc1ccc(NCc2cc3cc4c(cc3n(CC(=O)Nc3ccc(F)cc3F)c2=O)OCCO4)cc1` here?
Answer: inconclusive: 25.1 µM [inhibitor, single point]

Question: For `CCOc1ccc(S(=O)(=O)NCc2ccc3c(c2)CCN3C(=O)c2ccc(C)cc2)cc1`, which Potency is on record?
Answer: inconclusive: 39.8 µM [inhibitor, single point]

Question: For `CS(=O)(=O)N1CCN(c2ccc(NC(=O)Cc3ccccc3)cc2)CC1`, which Potency is on record?
Answer: inconclusive: 39.8 µM [inhibitor, single point]

Question: For `Cc1ccc(S(=O)(=O)c2nnn3c2nc(N2CCCC(C)C2)c2cc(Cl)ccc23)cc1C` (stereo not given), which max response, negative = inhibition is on record?
Answer: inactive: -0.588%

Question: Which Potency does the source give for `Cc1ccc(-n2c(=O)c3c(C)c(C)sc3n(Cc3cc(=O)n4ccccc4n3)c2=O)cc1C` here?
Answer: inconclusive: 39.8 µM [activator, single point]

Question: Which Potency does the source give for `O=C(CNc1ccc2ccccc2c1)N/N=C/C=C/c1cccc([N+](=O)[O-])c1` here?
Answer: inconclusive: 31.6 µM [inhibitor, single point]

Question: With `Cc1ccc(C)c(NC(=O)c2cc(S(=O)(=O)N3CCN(c4cccc(Cl)c4)CC3)ccc2F)c1` as the compound, how does the Potency read?
Answer: active: 7.94 µM

Question: With `CCN(Cc1ccccc1)C(=O)C1CCC(CNS(=O)(=O)c2ccc3c(c2)CCCC(=O)N3)CC1` (stereo not given) as the compound, how does the Potency read?
Answer: inconclusive: 31.6 µM [activator, single point]

Question: How did the Potency turn out when `Cc1cc(C(=O)CN2C(=O)NC(C)(CC(C)C)C2=O)c(C)n1-c1ccc2c(c1)OCO2` (stereo not given) was run?
Answer: inconclusive: 25.1 µM [inhibitor, single point]

Question: For `COc1ccc(Nc2ncc3c(n2)CCN(Cc2cccc(F)c2F)C3)c(OC)c1`, which max response, negative = inhibition is on record?
Answer: inactive: -6.17%

Question: Which max response, negative = inhibition does the source give for `CCNc1ncc2nc(C)c(=O)n(CCc3ccccc3)c2n1` here?
Answer: inactive: 17.4%

Question: `Cc1ccc2nc(-c3cccc(NC(=O)CSc4ccc(Cl)cc4)c3)oc2c1` was tested. Which max response, negative = inhibition did it give?
Answer: inactive: 8.15%

Question: Which Potency does the source give for `COc1ccc(Br)cc1/C=C/C(=O)Nc1ccc2ccccc2c1` here?
Answer: inconclusive: 39.8 µM [inhibitor, single point]

Question: For `Cc1ccc(/C=C/C(=O)NC(=S)Nc2ccccc2C(=O)NC2CCCCC2)cc1`, which Potency is on record?
Answer: inconclusive: 31.6 µM [inhibitor, single point]

Question: Which Potency does the source give for `O=C(c1cccc(F)c1)N1CCN(c2cccc(Cl)c2)CC1` here?
Answer: inconclusive: 20 µM [inhibitor, single point]

Question: `O=C(Nc1nc(-c2ccccc2)cs1)c1ccc2c(c1)S(=O)(=O)c1ccccc1C2=O` was tested. Which Potency did it give?
Answer: inconclusive: 31.6 µM [inhibitor, single point]

Question: How did the Potency turn out when `S=c1[nH]nc(-c2ccccc2)n1/N=C/c1c[nH]c2ccccc12` was run?
Answer: inconclusive: 31.6 µM [inhibitor, single point]

Question: With `COc1ccccc1NC(=O)Cn1nc2c3cc(F)ccc3n(Cc3cccc(C)c3)cc-2c1=O` as the compound, how does the max response, negative = inhibition read?
Answer: inactive: -1.78%

From PubChem BioAssay AID1476 (National Center for Advancing Translational Sciences (NCATS), 2009)
